According to PubChem BioAssay AID651820 (National Center for Advancing Translational Sciences (NCATS), 2012):
About 12,000 (3.5%) of roughly 340,000 compounds were called active. The shares of active, inactive and inconclusive entries below differ from those in the screen. The call rests on the fitted dose curve; in most records, active means well fitted inhibition curve with a large enough effect; inconclusive means small, poorly fitted or top-dose-only effect, or another doubt; inactive means no such curve, though single readings can be large or run the other way. Potencies of inconclusive entries are left out as doubtful fits.

Experiment: qHTS Assay for Inhibitors of Hepatitis C Virus (HCV)
Details: Huh7.5.1 HCVcc-Cre (HCVcc is cell-culture hepatitis C virus) infection, luciferase reporter, 44 h; series mostly up to 41.8 µM
Outline: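 Cells seeded at 1,000/well and cultured 4 h, then compounds added followed by HCVcc-Cre virus (~0.5 moi). After 44 h further culture, luciferase substrate was added, plates held 15 min at room temperature, and luminescence read for 15 sec.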
Potency means the concentration at half of the fitted maximal effect; tags describe the fitted curve by direction and shape.

SMILES	Potency
COc1ccc2sc(-c3ccccc3OC)c(C#CC(C)(C)O)c2c1	inconclusive [inhibitor, single point]
COc1ccccc1N=NC1C(=O)N(C(N)=S)N=C1C (stereo not given)	inactive
Cc1ccc(NC(=O)c2oc3ccc(S(=O)(=O)N4CCOCC4)cc3c2C)cc1C	inconclusive [inhibitor, full curve]
COc1cccc(NC(=O)CSc2nnc(NC(=O)C3CCC3)s2)c1	inactive
CS(=O)(=O)c1ccc(Sc2nc3ccccc3s2)c([N+](=O)[O-])c1	inconclusive [inhibitor, single point]
CCn1c2ccccc2c2cc(NC(=O)COC(=O)c3ccccc3Br)ccc21	inconclusive [inhibitor, partial curve]
O=C(CCCO)NNc1c2ccccc2nc2ccccc12	active: 1 µM
C/C(=N\NC(=O)COc1ccccc1-c1ccccc1)c1cccnc1	inconclusive [inhibitor, partial curve]
O=C(CSc1nnnn1-c1ccccc1)NCC1(N2CCOCC2)CCCCC1	inactive
COCc1cc(CN2CCN(C)CC2)c(O)c2ncccc12	inconclusive [inhibitor, single point]
CCC(CC)C(=O)N1N=C(c2ccc(NS(C)(=O)=O)cc2)CC1c1ccccc1 (stereo not given)	inconclusive [inhibitor, single point]
O=C(NCCc1ccco1)c1cc(COc2cccc(C(F)(F)F)c2)on1	inconclusive [inhibitor, single point]
O=C(Nc1nnc(Cc2ccc(F)cc2)s1)Nc1ccccc1F	inactive
CC(=O)N(/N=C1\Sc2ccccc2C1=O)c1ccc(C)cc1C	inactive
CS(=O)(=O)N(CC(=O)NCc1ccco1)c1ccccc1Cl	inactive
CCSc1ccccc1C(=O)Nc1cccc(OC)c1	inconclusive [inhibitor, single point]
Cc1ccc(S(=O)(=O)n2c(N)nc3ccccc32)cc1	inconclusive [inhibitor, single point]
O=C(N/N=C/C(Cl)=C/c1ccccc1)c1ccc2c(c1)OCO2	inconclusive [inhibitor, single point]
Cc1noc(C)c1COC(=O)c1ccc(S(=O)(=O)NCc2ccco2)cc1	inconclusive [inhibitor, single point]
COC(=O)C(C)Oc1cc(OC(C)C(=O)OC)c2c(C)c(Cl)c(=O)oc2c1 (stereo not given)	inconclusive [inhibitor, single point]
OCCc1c[nH]c2ccc(C(F)(F)F)cc12	inconclusive [inhibitor, single point]
COc1ccc(CN(C(=O)c2ccco2)c2ccc(Br)cc2)cc1OC	inactive
COC(=O)c1cc(CSc2nc3ccc(C)cc3[nH]2)oc1C	inconclusive [inhibitor, partial curve]

SMILES	Potency
O=[N+]([O-])c1ccccc1Nc1c2ccccc2nc2ccccc12	inconclusive [inhibitor, partial curve]
Cc1ccc2c(c1)N(C)/C(=C/c1cccc[n+]1C)S2	inconclusive [inhibitor, full curve]
COc1ccc(CNCc2ccc3c(c2)OCO3)cc1Br	inconclusive [inhibitor, single point]
Cc1ccc(C)c(N2CCN(C(=O)C3CCN(c4nc(C)cc(C)n4)CC3)CC2)c1	inconclusive [inhibitor, partial curve]
O=C(CCS(=O)(=O)c1ccc(Br)cc1)N1CCN(Cc2ccccc2)CC1	inactive
C#CCOCCOCCOCCNc1nc(N2CCN(C(=O)CCCCCCCCCCNC(=O)Cn3cc(CCCCCN)nn3)CC2)nc(N2CCN(C(=O)CCCCCCCCCCNC(=O)[C@@H](CCC(=O)O)n3cc(CCCCCN)nn3)CC2)n1	inactive
CCOC(=O)c1sc(NC(=O)C(C)(C)C)cc1C	inconclusive [inhibitor, single point]
COc1ccccc1NC(=O)N1CCc2[nH]c3ccc(F)cc3c2C1	active: 10 µM
C=CCN(c1ccccc1)S(=O)(=O)c1cccc(C(=O)N2CCN(c3ncccn3)CC2)c1	inconclusive [inhibitor, single point]
COc1ccc2nc(N3CCCC(C(=O)NCCCN4C(C)CCCC4C)C3)sc2c1 (stereo not given)	inconclusive [inhibitor, partial curve, poor fit]
COc1ccc(Nc2cc(C)c3c(O)cccc3n2)cc1	inconclusive [inhibitor, single point]
O=C(O)CC/C(=N\NC(=O)c1ccncc1)c1ccccc1	inactive
CCOc1ccc(CNC(=O)CCCC(=O)n2nc(C)c3ccccc32)cc1	inactive
COC(=O)c1ccc(OCC2c3cc(OC)c(OC)cc3CCN2C(C)=O)cc1 (stereo not given)	inconclusive [inhibitor, partial curve]
CCc1sc(C(=O)N2CCN(CC(=O)Nc3cccc(F)c3)CC2)cc1C	inconclusive [inhibitor, partial curve]
COC(=O)C1=C(c2ccc3ccccc3c2)C[C@@H]2CC[C@H]1N2C(=O)N1CCC(C)CC1	inconclusive [inhibitor, single point]
NS(=O)(=O)c1cccc(NC(=O)COC(=O)c2ccccc2SCC(=O)N2CCCC2)c1	inactive
CCOC(=O)CSc1nc2cc(C)ccc2cc1C#N	inconclusive [inhibitor, partial curve]
C/C(=N\OC(=O)c1c(-c2c(F)cccc2Cl)noc1C)c1nccs1	inactive
CC1CCN(CCCNS(=O)(=O)c2cc(Br)cc3c2N(C(=O)C2CC2)CC3)CC1	inconclusive [inhibitor, single point]
NC(=O)c1ccc(NC(=O)c2cccc3c2OCCCO3)cc1	inactive
COc1ccc(C)cc1N(C(=O)c1cccc(F)c1)c1nc2ccccc2s1	inconclusive [inhibitor, partial curve, poor fit]
